Numbering of substitutions follows the chain as printed. Results are given in words; binding and its absence hold for the method and conditions named. In cells and extracts the contact can be indirect. Some entries that bind do so weakly or less than the wild type.
T1: PEX11G (UniProt Q96HA9)
T1 sequence: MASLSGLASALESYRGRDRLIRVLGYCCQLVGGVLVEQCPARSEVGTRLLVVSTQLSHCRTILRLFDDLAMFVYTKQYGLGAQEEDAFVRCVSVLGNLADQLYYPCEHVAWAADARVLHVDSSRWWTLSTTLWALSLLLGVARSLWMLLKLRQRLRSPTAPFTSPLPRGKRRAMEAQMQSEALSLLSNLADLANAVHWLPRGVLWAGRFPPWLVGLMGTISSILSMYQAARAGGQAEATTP

Amino acid sequences for entries named in this document (tags omitted).
UniProt Q9Y5Y5: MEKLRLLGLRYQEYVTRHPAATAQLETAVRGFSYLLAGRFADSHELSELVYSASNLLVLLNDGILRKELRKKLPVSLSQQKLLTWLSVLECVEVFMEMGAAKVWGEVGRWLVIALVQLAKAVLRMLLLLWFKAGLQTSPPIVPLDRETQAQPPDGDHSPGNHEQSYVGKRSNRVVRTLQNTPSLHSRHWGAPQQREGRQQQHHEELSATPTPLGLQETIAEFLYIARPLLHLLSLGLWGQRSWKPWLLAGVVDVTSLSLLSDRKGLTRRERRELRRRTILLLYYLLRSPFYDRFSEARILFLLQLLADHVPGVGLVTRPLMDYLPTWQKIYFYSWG
UniProt Q9Y3D6: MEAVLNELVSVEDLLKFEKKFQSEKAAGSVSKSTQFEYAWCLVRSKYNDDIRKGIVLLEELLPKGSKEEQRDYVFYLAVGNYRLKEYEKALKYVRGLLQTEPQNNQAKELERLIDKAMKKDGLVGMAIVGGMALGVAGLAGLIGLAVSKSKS
UniProt O75381: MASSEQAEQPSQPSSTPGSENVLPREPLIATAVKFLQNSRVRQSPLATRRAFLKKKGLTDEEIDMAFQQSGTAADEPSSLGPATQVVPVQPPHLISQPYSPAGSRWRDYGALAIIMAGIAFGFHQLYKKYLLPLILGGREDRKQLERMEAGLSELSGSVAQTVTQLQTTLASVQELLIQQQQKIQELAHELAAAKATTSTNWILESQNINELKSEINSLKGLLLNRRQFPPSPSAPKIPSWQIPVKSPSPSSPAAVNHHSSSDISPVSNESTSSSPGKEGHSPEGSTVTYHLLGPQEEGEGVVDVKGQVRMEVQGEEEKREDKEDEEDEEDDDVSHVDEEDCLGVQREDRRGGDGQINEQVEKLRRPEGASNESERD
UniProt P51648: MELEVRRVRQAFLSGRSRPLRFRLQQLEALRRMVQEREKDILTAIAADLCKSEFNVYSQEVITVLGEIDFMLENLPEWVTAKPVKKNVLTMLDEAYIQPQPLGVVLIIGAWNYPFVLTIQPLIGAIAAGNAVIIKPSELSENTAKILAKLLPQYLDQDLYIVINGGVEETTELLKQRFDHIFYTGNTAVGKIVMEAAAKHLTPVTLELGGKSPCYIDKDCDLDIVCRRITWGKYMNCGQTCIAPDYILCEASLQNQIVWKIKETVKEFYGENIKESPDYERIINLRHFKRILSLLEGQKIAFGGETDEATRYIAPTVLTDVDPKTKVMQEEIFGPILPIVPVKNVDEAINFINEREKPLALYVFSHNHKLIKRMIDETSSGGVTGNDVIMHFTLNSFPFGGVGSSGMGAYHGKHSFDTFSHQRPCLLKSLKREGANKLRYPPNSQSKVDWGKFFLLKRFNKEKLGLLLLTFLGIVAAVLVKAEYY

T2: ABCD3 (UniProt P28288)
T2 sequence: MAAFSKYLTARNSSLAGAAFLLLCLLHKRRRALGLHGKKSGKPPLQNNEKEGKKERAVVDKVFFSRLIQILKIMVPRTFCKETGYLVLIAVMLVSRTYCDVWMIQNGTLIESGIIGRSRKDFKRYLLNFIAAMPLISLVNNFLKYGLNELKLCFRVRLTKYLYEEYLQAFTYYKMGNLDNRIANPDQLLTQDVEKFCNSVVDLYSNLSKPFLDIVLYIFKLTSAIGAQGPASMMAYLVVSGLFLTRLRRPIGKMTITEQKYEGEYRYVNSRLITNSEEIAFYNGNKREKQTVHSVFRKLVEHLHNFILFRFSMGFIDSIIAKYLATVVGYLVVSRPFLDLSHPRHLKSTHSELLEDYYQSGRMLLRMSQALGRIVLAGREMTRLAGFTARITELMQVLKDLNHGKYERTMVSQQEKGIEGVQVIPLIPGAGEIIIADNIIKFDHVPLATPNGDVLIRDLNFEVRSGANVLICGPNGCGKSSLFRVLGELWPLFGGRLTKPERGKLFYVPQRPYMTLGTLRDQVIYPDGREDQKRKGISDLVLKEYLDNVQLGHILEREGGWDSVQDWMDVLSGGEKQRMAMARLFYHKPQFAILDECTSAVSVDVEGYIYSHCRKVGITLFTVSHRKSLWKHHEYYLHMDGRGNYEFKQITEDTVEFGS

T3: PEX11B (UniProt O96011)
T3 sequence: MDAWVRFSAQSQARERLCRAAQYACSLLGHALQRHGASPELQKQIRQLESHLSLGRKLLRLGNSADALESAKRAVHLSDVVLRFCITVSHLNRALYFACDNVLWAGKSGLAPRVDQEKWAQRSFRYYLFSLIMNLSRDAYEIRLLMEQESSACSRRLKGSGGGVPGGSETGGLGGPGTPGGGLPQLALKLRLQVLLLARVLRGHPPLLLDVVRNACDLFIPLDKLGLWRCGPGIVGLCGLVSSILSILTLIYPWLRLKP

T4: FAR1 (UniProt Q8WVX9)
T4 sequence: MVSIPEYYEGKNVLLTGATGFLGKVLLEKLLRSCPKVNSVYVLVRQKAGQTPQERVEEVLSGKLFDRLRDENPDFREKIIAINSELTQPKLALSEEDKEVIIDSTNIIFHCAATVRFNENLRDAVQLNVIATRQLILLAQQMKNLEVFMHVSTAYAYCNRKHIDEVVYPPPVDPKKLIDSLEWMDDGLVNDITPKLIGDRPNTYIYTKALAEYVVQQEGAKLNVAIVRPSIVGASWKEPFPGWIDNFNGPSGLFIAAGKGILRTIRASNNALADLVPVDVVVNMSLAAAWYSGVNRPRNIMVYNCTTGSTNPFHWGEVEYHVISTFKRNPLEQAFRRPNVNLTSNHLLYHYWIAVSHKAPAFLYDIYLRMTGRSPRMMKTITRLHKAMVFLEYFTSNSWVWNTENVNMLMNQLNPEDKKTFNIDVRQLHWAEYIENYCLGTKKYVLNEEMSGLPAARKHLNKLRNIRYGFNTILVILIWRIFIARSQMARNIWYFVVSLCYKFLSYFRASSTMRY

B1: peroxisome biogenesis factor 26 (PEX26) wild-type (protein, UniProt Q7Z412-1 1-305)
chain: MKSDSSTSAAPLRGLGGPLRSSEPVRAVPARAPAVDLLEEAADLLVVHLDFRAALETCERAWQSLANHAVAEEPAGTSLEVKCSLCVVGIQALAEMDRWQEVLSWVLQYYQVPEKLPPKVLELCILLYSKMQEPGAVLDVVGAWLQDPANQNLPEYGALAEFHVQRVLLPLGCLSEAEELVVGSAAFGEERRLDVLQAIHTARQQQKQEHSGSEEAQKPNLEGSVSHKFLSLPMLVRQLWDSAVSHFFSLPFKKSLLAALILCLLVVRFDPASPSSLHFLYKLAQLFRWIRKAAFSRLYQLRIRD
B2: PEX26 p.Leu44Pro (protein, UniProt Q7Z412-1 1-305)
chain: B1 chain with L44P
B3: PEX26 p.Leu45Pro (protein, UniProt Q7Z412-1 1-305)
chain: B1 chain with L45P
B4: PEX26 p.Gly89Arg (protein, UniProt Q7Z412-1 1-305)
chain: B1 chain with G89R
B5: PEX26 p.Arg98Trp (protein, UniProt Q7Z412-1 1-305)
chain: B1 chain with R98W
B6: PEX26 p.Pro117Leu (protein, UniProt Q7Z412-1 1-305)
chain: B1 chain with P117L
B7: PEX26 p.Pro118Arg (protein, UniProt Q7Z412-1 1-305)
chain: B1 chain with P118R
B8: PEX26 p.Leu153Val (protein, UniProt Q7Z412-1 1-305)
chain: B1 chain with L153V

target: PEX16 (UniProt Q9Y5Y5); experiment: FRET or BRET; BRET in living HEK293 cells co-transfected with Rluc (donor) and YFP (acceptor) fusions, acceptor to donor ratio 3:1; read 48 h later with coelenterazine 30 μM; all eight combinations of N- or C-terminal fusions tested in duplicates; interaction assumed if at least one combination gave a BRET ratio above the threshold of 0.094

binding | Binder
binds | B1
no binding | B2
no binding | B3
no binding | B4
no binding | B5
no binding | B6
no binding | B7
no binding | B8

target: T1, PEX11G; experiment: as above

binding | Binder
binds | B1
no binding | B6
binds | B8

target: T2, ABCD3; experiment: as above

binding | Binder
binds | B1
no binding | B2
no binding | B3
no binding | B4
no binding | B5
no binding | B6
no binding | B7
no binding | B8

target: FIS1 (UniProt Q9Y3D6); experiment: as above

binding | Binder
binds | B1
binds | B2
binds | B3
binds | B4
binds | B5
binds | B6
binds | B7
binds | B8

target: PEX14 (UniProt O75381); experiment: as above

binding | Binder
binds | B1
binds | B2
binds | B3
binds | B4
binds | B5
binds | B6
binds | B7
binds | B8

target: T3, PEX11B; experiment: as above

binding | Binder
binds | B1
no binding | B2
no binding | B3
no binding | B4
no binding | B5
no binding | B6
no binding | B7
binds | B8

target: T4, FAR1; experiment: as above

binding | Binder
binds | B1
no binding | B2
no binding | B3
no binding | B4
no binding | B5
no binding | B6
no binding | B7
binds | B8

target: ALDH3A2 (UniProt P51648); experiment: as above

binding | Binder
binds | B1
binds | B2
binds | B3
no binding | B4
no binding | B5
binds | B6
binds | B7
binds | B8

From PMC8600046
